What is called EC50 is the concentration that produces a half-maximal response. High values mean a less potent agent, low ones a more potent agent. In general, Kd refers to a measure of binding affinity in units of concentration. The low end stands for tighter binding, the high end for weaker binding. As a reminder, the koff is a measure of how fast the partners let go of each other. Lower therefore signals a long-lived complex. The term kon denotes a measure of how fast the partners come together. Higher therefore signals fast association.

One assay concerns the target T1, PD1-ECD-His (human, UniProt Q15116 fragment).
T1 construct: extracellular domain; Bought; also called recombinant protein of the extracellular segment of human PD-1 with a polyhistidine tag (Sino Biological 10377-H08H); not shown: polyhistidine tag
The assay can be described thus: ELISA, plate coated with PD1-ECD-His. (In an ELISA, binding on a coated surface is turned into a signal by an enzyme label.)
Chain of PD1-ECD-His (Q15116 25-170): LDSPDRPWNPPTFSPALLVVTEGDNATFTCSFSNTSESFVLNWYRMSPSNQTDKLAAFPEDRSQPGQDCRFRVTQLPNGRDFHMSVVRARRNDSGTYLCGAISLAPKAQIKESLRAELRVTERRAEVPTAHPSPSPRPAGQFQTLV

Assay [1] addresses T2, recombinant VEGF165 (Acrobiosystems, Cat. No. VE5-H4210) (UniProt P15692-4 27-191).
T2 sequence (looked up): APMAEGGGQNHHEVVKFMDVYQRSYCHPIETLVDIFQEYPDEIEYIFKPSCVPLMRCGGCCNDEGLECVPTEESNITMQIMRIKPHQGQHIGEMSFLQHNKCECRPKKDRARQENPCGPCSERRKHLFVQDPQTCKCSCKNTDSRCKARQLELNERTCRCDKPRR
Nature of the assay: cell-based or functional assay.

Assay [2] deals with T3, PD1-His (human, UniProt Q15116 fragment).
T3 construct: extracellular domain; In-house protein; also called extracellular domain protein of human PD-1 with a 6*His tag
Nature of the assay: ELISA, plate coated with PD1-His.

The target of assay [3] is T3, PD1-His. The assay can be described thus: SPR, Biacore 8K, antibody captured on Protein A/G chip, PD1-His injected. (In SPR one partner is held on a chip, and binding of the other changes the refractive index at the surface.)
T3 sequence (Q15116 other isoform, or with tags, fused parts or gaps): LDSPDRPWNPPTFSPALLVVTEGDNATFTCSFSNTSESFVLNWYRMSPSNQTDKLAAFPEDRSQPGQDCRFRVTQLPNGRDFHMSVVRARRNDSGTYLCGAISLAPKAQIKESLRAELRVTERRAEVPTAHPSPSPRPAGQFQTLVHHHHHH
Assay [4] has as its target T4, VEGF165-His (human, UniProt P15692-4 27-191).
T4 construct: also called Human VEGF165 with a 6*His tag
T4 sequence: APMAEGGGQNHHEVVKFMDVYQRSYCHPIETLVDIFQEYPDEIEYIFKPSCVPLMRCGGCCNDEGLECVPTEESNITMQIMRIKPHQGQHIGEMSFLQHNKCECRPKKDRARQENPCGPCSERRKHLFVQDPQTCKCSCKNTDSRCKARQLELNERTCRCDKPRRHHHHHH
The assay can be described thus: ELISA, plate coated with VEGF165-His.

For assay [5], the target named is T4, VEGF165-His. Nature of the assay: SPR, Biacore 8K, antibody captured on Protein A/G chip, VEGF165-His injected.
A further assay has as its target T5, LAG3-ECD-His (human, UniProt P18627 23-450).
T5 construct: extracellular domain; Bought; not shown: polyhistidine tag
T5 sequence (looked up): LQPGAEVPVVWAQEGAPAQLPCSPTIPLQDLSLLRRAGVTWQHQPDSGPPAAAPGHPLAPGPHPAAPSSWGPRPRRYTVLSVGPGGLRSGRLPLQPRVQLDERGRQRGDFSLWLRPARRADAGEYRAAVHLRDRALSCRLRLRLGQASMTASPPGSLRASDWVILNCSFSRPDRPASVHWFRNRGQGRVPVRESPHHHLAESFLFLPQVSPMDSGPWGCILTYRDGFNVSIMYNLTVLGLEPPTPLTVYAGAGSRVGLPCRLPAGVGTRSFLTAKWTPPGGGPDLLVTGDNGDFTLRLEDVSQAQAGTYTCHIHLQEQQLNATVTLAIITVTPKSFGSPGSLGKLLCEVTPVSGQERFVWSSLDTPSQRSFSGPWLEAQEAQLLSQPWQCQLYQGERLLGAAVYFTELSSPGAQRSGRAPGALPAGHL
The assay can be described thus: ELISA, plate coated with LAG3-ECD-His.

B1: 609-Fab-Pertuzumab-IgG4 (bispecific antibody)
heavy: EVKLVESGGGLVQPGGSLRLSCAASGFAFSSYDMSWVRQAPGKRLEWVATISGGGRYTYYPDTVKGRFTISRDNAKNSHYLQMNSLRAEDTAVYFCASPYGGYFDVWGQGTLVTVSSASTKGPSVFPLAPCSRSTSESTAALGCLVKDYFPEPVTVSWNSGALTSGVHTFPAVLQSSGLYSLSSVVTVPSSSLGTKTYTCNVDHKPSNTKVDKRVGGGGSGGGGSGGGGSEVQLVESGGGLVQPGGSLRLSCAASGFTFTDYTMDWVRQAPGKGLEWVADVNPNSGGSIYNQRFKGRFTLSVDRSKNTLYLQMNSLRAEDTAVYYCARNLGPSFYFDYWGQGTLVTVSSASTKGPSVFPLAPCSRSTSESTAALGCLVKDYFPEPVTVSWNSGALTSGVHTFPAVLQSSGLYSLSSVVTVPSSSLGTKTYTCNVDHKPSNTKVDKRV[human IgG4 Fc with S228P (EU numbers) skipped]
light: DIQMTQSPSSLSASVGDRVTITCKASQDVSIGVAWYQQKPGKAPKLLIYSASYRYTGVPSRFSGSGSGTDFTLTISSLQPEDFATYYCQQYYIYPYTFGQGTKVEIKRTVAAPSVFIFPPSDEQLKSGTASVVCLLNNFYPREAKVQWKVDNALQSGNSQESVTEQDSKDSTYSLSSTLTLSKADYEKHKVYACEVTHQGLSSPVTKSFNRGEC
The molecule B1 displayed an EC50 in the assay with PD1-ECD-His of 120 pM.

B2: 20-Fab-601-IgG4-V94L (bispecific antibody)
heavy: EVQLVESGGGLVQPGGSLRLSCAASGFVFSNYDMSWVRQAPGKRLEWVATISGGGGYTYYSDSVKGRFTISRDNAKNSLYLQMNSLRAEDTAVYYCASPYGHYGFEYWGQGTLVTVSSASTKGPSVFPLAPCSRSTSESTAALGCLVKDYFPEPVTVSWNSGALTSGVHTFPAVLQSSGLYSLSSVVTVPSSSLGTKTYTCNVDHKPSNTKVDKRVGGGGSGGGGSGGGGSEVQLVESGGGLVQPGGSLRLSCAASGYTFTNYGMNWVRQAPGKGLEWVGWINTYTGEPTYAADFKRRFTFSLDTSKSTAYLQMNSLRAEDTAVYYCAKYPHYYGSSHWYFDVWGQGTLVTVSSASTKGPSVFPLAPCSRSTSESTAALGCLVKDYFPEPVTVSWNSGALTSGVHTFPAVLQSSGLYSLSSVVTVPSSSLGTKTYTCNVDHKPSNTKVDKRV[human IgG4 Fc with S228P (EU numbers) skipped]
light: DIQMTQSPSSLSASVGDRVTITCSASQDISNYLNWYQQKPGKAPKVLIYFTSSLHSGVPSRFSGSGSGTDFTLTISSLQPEDFATYYCQQYSTLPWTFGQGTKVEIKRTVAAPSVFIFPPSDEQLKSGTASVVCLLNNFYPREAKVQWKVDNALQSGNSQESVTEQDSKDSTYSLSSTLTLSKADYEKHKVYACEVTHQGLSSPVTKSFNRGEC
In the case of B2, the “IC50, inhibition of VEGF165-induced HUVEC proliferation (CCK-8)” value (shortened to “IC50, inhibition”) in assay [1] came to 9040 pM. Besides, the EC50 with PD1-His [2] was 477 pM; in the assay with VEGF165-His [4] it was 58.6 pM. For the same molecule, the figures for the Kd with PD1-His [3] and in the assay with VEGF165-His [5] were 885 pM and 9.26 pM, respectively. For the same molecule, the koff with PD1-His [3] was found to be 6.66e-05 s⁻¹; with VEGF165-His [5], 1.67e-05 s⁻¹. Further, the kon with PD1-His [3] is 75200 M⁻¹ s⁻¹; in the assay with VEGF165-His [5], 1.81e+06 M⁻¹ s⁻¹.

B3: 601-Fab-20-IgG4-V94L (bispecific antibody)
heavy: EVQLVESGGGLVQPGGSLRLSCAASGYTFTNYGMNWVRQAPGKGLEWVGWINTYTGEPTYAADFKRRFTFSLDTSKSTAYLQMNSLRAEDTAVYYCAKYPHYYGSSHWYFDVWGQGTLVTVSSASTKGPSVFPLAPCSRSTSESTAALGCLVKDYFPEPVTVSWNSGALTSGVHTFPAVLQSSGLYSLSSVVTVPSSSLGTKTYTCNVDHKPSNTKVDKRVGGGGSGGGGSGGGGSEVQLVESGGGLVQPGGSLRLSCAASGFVFSNYDMSWVRQAPGKRLEWVATISGGGGYTYYSDSVKGRFTISRDNAKNSLYLQMNSLRAEDTAVYYCASPYGHYGFEYWGQGTLVTVSSASTKGPSVFPLAPCSRSTSESTAALGCLVKDYFPEPVTVSWNSGALTSGVHTFPAVLQSSGLYSLSSVVTVPSSSLGTKTYTCNVDHKPSNTKVDKRV[human IgG4 Fc with S228P (EU numbers) skipped]
light: DIQMTQSPSSLSASVGDRVTITCSASQDISNYLNWYQQKPGKAPKVLIYFTSSLHSGVPSRFSGSGSGTDFTLTISSLQPEDFATYYCQQYSTLPWTFGQGTKVEIKRTVAAPSVFIFPPSDEQLKSGTASVVCLLNNFYPREAKVQWKVDNALQSGNSQESVTEQDSKDSTYSLSSTLTLSKADYEKHKVYACEVTHQGLSSPVTKSFNRGEC
B3: the “IC50, inhibition” value in assay [1] came to 3840 pM. The EC50 in the assay with PD1-His [2] worked out at 1770 pM; with VEGF165-His [4], 38.9 pM.

B4: 20-Fab-0313-IgG4-V94L (bispecific antibody)
heavy: EVQLVESGGGLVQPGGSLRLSCAASGFVFSNYDMSWVRQAPGKRLEWVATISGGGGYTYYSDSVKGRFTISRDNAKNSLYLQMNSLRAEDTAVYYCASPYGHYGFEYWGQGTLVTVSSASTKGPSVFPLAPCSRSTSESTAALGCLVKDYFPEPVTVSWNSGALTSGVHTFPAVLQSSGLYSLSSVVTVPSSSLGTKTYTCNVDHKPSNTKVDKRVGGGGSGGGGSGGGGSEVQLVESGGGLVQPGGSLRLSCAASGYDFTHYGMNWVRQAPGKGLEWVGWINTYTGEPTYAADFKRRFTFSLDTSKSTAYLQMNSLRAEDTAVYYCAKYPYYYGTSHWYFDVWGQGTLVTVSSASTKGPSVFPLAPCSRSTSESTAALGCLVKDYFPEPVTVSWNSGALTSGVHTFPAVLQSSGLYSLSSVVTVPSSSLGTKTYTCNVDHKPSNTKVDKRV[human IgG4 Fc with S228P (EU numbers) skipped]
light: DIQMTQSPSSLSASVGDRVTITCSASQDISNYLNWYQQKPGKAPKVLIYFTSSLHSGVPSRFSGSGSGTDFTLTISSLQPEDFATYYCQQYSTLPWTFGQGTKVEIKRTVAAPSVFIFPPSDEQLKSGTASVVCLLNNFYPREAKVQWKVDNALQSGNSQESVTEQDSKDSTYSLSSTLTLSKADYEKHKVYACEVTHQGLSSPVTKSFNRGEC
With B4, in assay [1], the “IC50, inhibition” value turned out to be 1630 pM.

B5: 609-Fab-5E7-IgG4 (bispecific antibody)
heavy: EVKLVESGGGLVQPGGSLRLSCAASGFAFSSYDMSWVRQAPGKRLEWVATISGGGRYTYYPDTVKGRFTISRDNAKNSHYLQMNSLRAEDTAVYFCASPYGGYFDVWGQGTLVTVSSASTKGPSVFPLAPCSRSTSESTAALGCLVKDYFPEPVTVSWNSGALTSGVHTFPAVLQSSGLYSLSSVVTVPSSSLGTKTYTCNVDHKPSNTKVDKRVGGGGSGGGGSGGGGSEVQLVESGGGLVKPGGSLRLSCAASGFTFSDDYMAWFRQAPGKRLEWVASISHGGDYIYYADNLKGRFTISRDNAKNSLYLQMNSLRAEDTAVYFCSRDRRSIDYWGQGTLVTVSSASTKGPSVFPLAPCSRSTSESTAALGCLVKDYFPEPVTVSWNSGALTSGVHTFPAVLQSSGLYSLSSVVTVPSSSLGTKTYTCNVDHKPSNTKVDKRV[human IgG4 Fc with S228P (EU numbers) skipped]
light: DIQMTQSPSSLSASVGDRVTITCRASQDISNYLSWYQQKPGKTIKLLIYYTSRLHSGVPSRFSGSGSGTDYTFTISSLQPEDIATYFCQQGKTLPYTFGQGTKVEIKRTVAAPSVFIFPPSDEQLKSGTASVVCLLNNFYPREAKVQWKVDNALQSGNSQESVTEQDSKDSTYSLSSTLTLSKADYEKHKVYACEVTHQGLSSPVTKSFNRGEC
As to B5, the EC50 with LAG3-ECD-His came to 208 pM; in the assay with PD1-ECD-His it was 161 pM.

B6: 5E7-Fab-609-IgG4 (bispecific antibody)
heavy: EVQLVESGGGLVKPGGSLRLSCAASGFTFSDDYMAWFRQAPGKRLEWVASISHGGDYIYYADNLKGRFTISRDNAKNSLYLQMNSLRAEDTAVYFCSRDRRSIDYWGQGTLVTVSSASTKGPSVFPLAPCSRSTSESTAALGCLVKDYFPEPVTVSWNSGALTSGVHTFPAVLQSSGLYSLSSVVTVPSSSLGTKTYTCNVDHKPSNTKVDKRVGGGGSGGGGSGGGGS[about 450 residues with a human IgG4 Fc skipped]
light: DIQMTQSPSSLSASVGDRVTITCRASQDISNYLSWYQQKPGKTIKLLIYYTSRLHSGVPSRFSGSGSGTDYTFTISSLQPEDIATYFCQQGKTLPYTFGQGTKVEIKRTVAAPSVFIFPPSDEQLKSGTASVVCLLNNFYPREAKVQWKVDNALQSGNSQESVTEQDSKDSTYSLSSTLTLSKADYEKHKVYACEVTHQGLSSPVTKSFNRGEC
For B6, the EC50 with LAG3-ECD-His was found to be 153 pM; with PD1-ECD-His, 814 pM.
